Some of the results follow. At the low end of the ranking, values are background and their order means little.

We go through 172 sequences from article PMC6212790.

The experiment deals with T1, GST-Rok (full length) (UniProt O34857).
T1 sequence: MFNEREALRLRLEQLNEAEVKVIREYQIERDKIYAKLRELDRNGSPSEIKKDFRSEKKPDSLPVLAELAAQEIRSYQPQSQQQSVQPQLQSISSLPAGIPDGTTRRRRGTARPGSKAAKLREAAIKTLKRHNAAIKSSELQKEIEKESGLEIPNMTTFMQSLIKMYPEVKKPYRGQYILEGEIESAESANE
Description: protein binding microarray.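 Also: rank score from −0.5 (least bound) to 0.5 (best bound).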 Particulars: Rok is a gene silencer of Bacillus subtilis; high values mean tight binding; most listed sequences are background and not binding sites; double strand, one strand shown.
In turn, AGAAACCC displayed a binding signal of 0.0446 E-score.
The value for CGAGCGGA was -0.195 E-score; that for CATTGCGC was -0.05 E-score; that for GAAGCGTA was -0.00919 E-score.
In turn, TGGACGAA gave a binding signal of -0.181 E-score.
GACCGTCC displayed a binding signal of -0.274 E-score.
As to CCGAGATC, the binding signal was determined as 0.0548 E-score.
TACCAGGA: the binding signal was determined as 0.119 E-score.
The result for TCATTCAA reads -0.111 E-score.
ATCTTCGG displayed a binding signal of 0.0362 E-score.
AGTTTATA had a binding signal of 0.301 E-score.
Sequence TGACGAAA came in with a binding signal of 0.0695 E-score.
Consider ATCGACTC, for which the binding signal is -0.00764 E-score.
Take AGCGAACT: the binding signal came to 0.0119 E-score.
Turning to ATCCAATC, the binding signal is 0.0269 E-score.
The sequence ACTTTGCA gave a binding signal of -0.0228 E-score.
The result for ACAGGCGG reads -0.273 E-score; that for AAAAGGTC, 0.0179 E-score.
CATCGTAG yielded a binding signal of -0.0797 E-score.
CGCATTCA returned a binding signal of -0.0312 E-score.
The value for CCGACTAG was -0.163 E-score; that for AGCCCTCG was -0.407 E-score.
AGGTGCGC had a binding signal of -0.168 E-score.
In the case of GCAGCTAC, the binding signal was -0.0984 E-score.
The result for CGATGTTC reads 0.0493 E-score; that for GAACAAGC, -0.0405 E-score; that for CCGACGAG, -0.161 E-score.
AGTCCATG yielded a binding signal of 0.134 E-score.
Sequence AATATAGC gave a binding signal of 0.32 E-score.
The result for CATTACGG reads -0.0492 E-score; that for ACTTCACC, 0.0492 E-score; that for CAAGCCCC, -0.383 E-score.
Regarding GCAGTGAA, the binding signal was -0.154 E-score.
The sequence AACGGCTT displayed a binding signal of -0.0354 E-score.
GGTTATTA: the binding signal stood at 0.179 E-score.
For the sequence ATAACTTC, the binding signal worked out at 0.244 E-score.
CGCTCGCC showed a binding signal of -0.219 E-score.
In turn, TACCCCGA returned a binding signal of -0.0867 E-score.
As for TATCACAA, the binding signal came out at 0.215 E-score.
Turning to AGGAGTCG, the binding signal is -0.17 E-score.
The sequence AACTGTAC showed a binding signal of 0.188 E-score.
TCACGGCA: the binding signal is -0.0169 E-score.
For ACAATCAA, the binding signal is 0.0639 E-score.
The sequence GCTAAGCA registered a binding signal of -0.155 E-score.
Regarding CGGGCTAG, the binding signal was -0.0191 E-score.
As to CTCTATGA, the binding signal amounted to 0.00914 E-score.
In turn, ACGGCTAC had a binding signal of -0.169 E-score.
As to TAGCTAGA, the binding signal amounted to 0.254 E-score.
On to AGAGTATG, for which the binding signal is 0.059 E-score.
The result for AGTGATCG reads -0.00928 E-score.
ATTGTGCG had a binding signal of 0.222 E-score.
AACAGGCT showed a binding signal of -0.172 E-score.
The result for ATAAGCAT reads 0.162 E-score.
Sequence CCGCATTC gave a binding signal of -0.117 E-score.
In turn, TCATTCGA yielded a binding signal of 0.0561 E-score.
Sequence AGGATCGA displayed a binding signal of 0.0686 E-score.
The value for GAAGTGTA was 0.175 E-score.
As for AACGCGGT, the binding signal is -0.127 E-score.
The sequence AGTGTAGG displayed a binding signal of 0.07 E-score.
For AGCGATGA, the binding signal came out at 0.00993 E-score.
Take TCGTAGAA: the binding signal came to 0.131 E-score.
The value for ACCTTGAT was 0.0336 E-score; that for GTACCGGA was 0.0443 E-score; that for ATCTATGC was 0.0906 E-score.
In turn, ACCCCGAA showed a binding signal of -0.31 E-score.
The value for AGACACCG was -0.195 E-score; that for AGTCAGAC was -0.25 E-score; that for AGCAAATC was 0.0475 E-score.
The value for ATCACACC was -0.038 E-score; that for GGTATAGA was 0.222 E-score.
On to AGTCTCTC, for which the binding signal was -0.161 E-score.
As for ATATTTGA, the binding signal came out at 0.228 E-score.
The sequence CGTCTTCC returned a binding signal of -0.3 E-score.
CCTCCCTC registered a binding signal of -0.196 E-score.
For CTCCCCAA, the binding signal is -0.19 E-score.
As for CTCTAATC, the binding signal was determined as 0.152 E-score.
Sequence CGTCCAGA returned a binding signal of -0.148 E-score.
ATAACGAG returned a binding signal of 0.141 E-score.
In the case of CCTGCGAA, the binding signal was -0.196 E-score.
Take ATTGCAGG: the binding signal was -0.261 E-score.
Turning to CCCGGCTA, the binding signal is -0.11 E-score.
The result for ACTCAGCT reads 0.0634 E-score; that for TCTACCAA, 0.264 E-score.
In the case of CGTTACCA, the binding signal was 0.233 E-score.
Sequence GTCAGGCA had a binding signal of -0.141 E-score.
On to CAGCTTCG, for which the binding signal is -0.109 E-score.
The sequence GAAGGAAA had a binding signal of -0.186 E-score.
For TCGGCCGA, the binding signal is -0.217 E-score.
GCAAAGGC returned a binding signal of -0.323 E-score.
Turning to AAGTCTGC, the binding signal is -0.0903 E-score.
As for TACTGTAA, the binding signal came to 0.323 E-score.
The value for AGGGTGCG was -0.191 E-score.
Take AAAACAGA: the binding signal stood at 0.0936 E-score.
The value for AAGGGGCA was -0.364 E-score; that for TGAGTGCA was -0.103 E-score; that for CGGCAAAA was -0.156 E-score.
As for ACCAAACT, the binding signal was determined as 0.19 E-score.
ACCCGCAT showed a binding signal of -0.226 E-score.
The result for ACCTGCCA reads -0.24 E-score; that for GGCTAAAC, -0.161 E-score; that for TATTAGAA, 0.269 E-score.
The value for AGACGAGG was -0.304 E-score; that for GGAATCCC was -0.162 E-score.
For the sequence CAACCGGA, the binding signal is -0.189 E-score.
As to ACCGTGGA, the binding signal is -0.0296 E-score.
On to ACAGAAGC, for which the binding signal is -0.117 E-score.
In the case of TCAAGAAA, the binding signal was -0.045 E-score.
GTCCGGTA registered a binding signal of 0.0485 E-score.
The sequence ACTTGGTA returned a binding signal of 0.0899 E-score.
In turn, CCCAGGAC returned a binding signal of -0.165 E-score.
The value for CATGACGG was -0.0168 E-score.
Sequence AAAAGCAT gave a binding signal of -0.159 E-score.
Sequence CCGTATTC displayed a binding signal of 0.0371 E-score.
For CGGATAGC, the binding signal turned out to be 0.000481 E-score.
The sequence GCACTGAA displayed a binding signal of -0.281 E-score.
The result for ACCATCAC reads 0.0375 E-score.
With CGCAAATA, the binding signal was determined as 0.166 E-score.
On to CTCCGAAC, for which the binding signal is -0.0538 E-score.
For CATTTCGA, the binding signal is -0.0105 E-score.
The value for AAGAGGCG was -0.215 E-score.
Sequence AAACGTAT came in with a binding signal of 0.193 E-score.
CCTAAGGC displayed a binding signal of -0.149 E-score.
The sequence GAATACTA had a binding signal of 0.295 E-score.
On to GAAAGGAC, for which the binding signal is -0.162 E-score.
TCTGCAGA returned a binding signal of 0.136 E-score.
The sequence ACCTGAGC gave a binding signal of -0.221 E-score.
The value for CGGCACAC was -0.127 E-score.
With CGCAAGGA, the binding signal was -0.217 E-score.
In the case of TACCTTAA, the binding signal was determined as 0.233 E-score.
Turning to CAAACTGA, the binding signal is -0.0599 E-score.
With AATCCTTA, the binding signal worked out at 0.129 E-score.
Sequence GCCGCTTA came in with a binding signal of -0.147 E-score.
The sequence GGAGGAGA came in with a binding signal of -0.27 E-score.
The sequence ATGCGCCA yielded a binding signal of -0.131 E-score.
Sequence AATATTAC came in with a binding signal of 0.239 E-score.
The value for GACGGTGA was -0.0863 E-score.
The value for ATGTCGCC was -0.202 E-score; that for CCCTACAG was -0.166 E-score.
In the case of ATGGCCAA, the binding signal stood at 0.134 E-score.
Take GCGGGAGC: the binding signal was -0.392 E-score.
The result for ACGATAGA reads 0.259 E-score; that for ATCGGTCA, 0.0381 E-score.
Turning to GGCCCAAC, the binding signal was -0.258 E-score.
AATTAAAG: the binding signal is 0.192 E-score.
With TATATGGA, the binding signal is 0.343 E-score.
As for GCCTGGCC, the binding signal is -0.314 E-score.
CAGGGGCA showed a binding signal of -0.417 E-score.
As to ACCCATTG, the binding signal is -0.0408 E-score.
GAGATTCC showed a binding signal of 0.0123 E-score.
On to ACGCGGCT, for which the binding signal was -0.251 E-score.
The sequence AAATCCCA had a binding signal of 0.045 E-score.
Consider TACTACCA, for which the binding signal worked out at 0.386 E-score.
CTTGGCTC showed a binding signal of -0.0993 E-score.
Turning to GCCATCTA, the binding signal came to 0.0099 E-score.
Regarding CGCGATCC, the binding signal was -0.214 E-score.
The result for ATTGTTAC reads 0.15 E-score; that for ATCAACAC, 0.0501 E-score; that for CCCGAGGA, -0.13 E-score.
Regarding ATGTTAAT, the binding signal came to 0.263 E-score.
CTATCTAC gave a binding signal of 0.433 E-score.
The result for CGTCCTGA reads -0.279 E-score; that for CAACCATA, 0.128 E-score.
Sequence CTCGCCCC displayed a binding signal of -0.14 E-score.
The value for AAACATGG was -0.0047 E-score.
As for CATATAGG, the binding signal was found to be 0.175 E-score.
In the case of AGAGCCTC, the binding signal was -0.311 E-score.
For GTGTCTAA, the binding signal came to 0.102 E-score.
As to AAAACCGA, the binding signal was -0.0124 E-score.
The sequence GCGGCAAA came in with a binding signal of -0.0419 E-score.
Sequence AGCATGGA gave a binding signal of 0.0226 E-score.
As to ATGAGGTA, the binding signal turned out to be 0.18 E-score.
GTGAGGGA: the binding signal is -0.139 E-score.
